Data on 172 sequences can be found in publication PMC10668032.

The other results are listed elsewhere or left out. At the low end of the ranking the order means little.

The target in this test is SIX1-Q177R homeodomain (UniProt Q15475). Briefly: universal protein binding microarray. The following applies: Universal all-10-mer PBM (8x60K, AMADID 030236), 300 nM GST-tagged protein, Alexa Fluor 488 anti-GST; buffer, salt, pH and temperature not stated; high values mean tight binding; most listed sequences are background and not binding sites; double strand, one strand shown.
In the case of ATAGGTCG, the binding signal was -0.104 E-score. GACGCCAA: the binding signal was -0.0144 E-score. GAATGATC: the binding signal was -0.126 E-score. Then ACATTTCT, with -0.152 E-score; and CAACTAAC, with 0.108 E-score. Regarding AAAACCCA, the binding signal is -0.00103 E-score. Then AGCTACCC, with 0.0582 E-score. GTATCGCA: the binding signal worked out at 0.234 E-score. On to ATGCAGGA, for which the binding signal stood at 0.15 E-score. For GGATTGCA, the binding signal was -0.122 E-score. TCACATAA: the binding signal is -0.124 E-score. As to CCAAGATC, the binding signal is -0.108 E-score.

With AGGGGCGC, the binding signal was -0.0975 E-score. For ACCTCCCA, the binding signal came out at 0.191 E-score. Consider ACCTCCCT, for which the binding signal turned out to be 0.0692 E-score. The result for CGACCTCA reads 0.168 E-score; that for CGGCACGC, 0.0759 E-score; that for TGATGGAA, -0.0859 E-score. As to ACCGCCGG, the binding signal worked out at 0.103 E-score.

ACCGGGAA: the binding signal was -0.0276 E-score. Take CAATACCA: the binding signal worked out at 0.103 E-score.

As to AGAGATCT, the binding signal is -0.0869 E-score.

Regarding CCTTCCCA, the binding signal came to 0.085 E-score. In the case of ATTTGGCC, the binding signal was -0.223 E-score. For the sequence GGGCGTAA, the binding signal was determined as 0.0918 E-score. Consider CAGAGTTC, for which the binding signal is -0.142 E-score. Then TCCTGGCA, with -0.0298 E-score; and GGAACGCC, with -0.029 E-score; and ATTGGTGC, with 0.16 E-score.

For TCATCGCA, the binding signal was -0.03 E-score. As for AAATTGGA, the binding signal was 0.0506 E-score. As for CTGCCTGA, the binding signal was -0.114 E-score. As to TCAGCCGA, the binding signal worked out at 0.0195 E-score. For the sequence GCAGGCAC, the binding signal was -0.0133 E-score. In the case of CTTACAAG, the binding signal was found to be 0.0437 E-score. ATGGAGTC: the binding signal turned out to be 0.232 E-score. The result for ACTTAGAC reads -0.00349 E-score.

With TCACTACA, the binding signal worked out at 0.225 E-score. With AACATAGG, the binding signal is -0.149 E-score. As to GAAACGGA, the binding signal is -0.129 E-score. In the case of CGAAGCAA, the binding signal is -0.116 E-score. As for CACCGTGA, the binding signal was determined as 0.277 E-score. TAACGGGA: the binding signal is -0.128 E-score.

For CTGAATAA, the binding signal was -0.196 E-score. Consider AGCGAATA, for which the binding signal was -0.112 E-score.

With CGGTGTAG, the binding signal is 0.487 E-score. The result for CCAAGTAG reads 0.0319 E-score. Regarding CTTCGGGA, the binding signal is -0.0649 E-score.

For ACCGACGA, the binding signal stood at 0.0311 E-score. For CAATGTAG, the binding signal turned out to be 0.0714 E-score. With CTGTAAGA, the binding signal is 0.065 E-score. Regarding CCTATGGA, the binding signal stood at 0.0385 E-score. As to CTGTTGTA, the binding signal was -0.167 E-score. Then CCCGATCG, with 0.076 E-score.

As for AGCGGCTC, the binding signal is -0.0445 E-score. As for CACAACAG, the binding signal was -0.121 E-score.

Turning to AGTCCAGA, the binding signal is -0.163 E-score. In the case of CACTTAGA, the binding signal came out at 0.128 E-score. As to AGAGCGCT, the binding signal was -0.247 E-score. Then GCGCGCGA, with -0.0938 E-score; and CGCCATTC, with -0.0918 E-score. As for TCCAGAAA, the binding signal was 0.0258 E-score. With CCAAACGC, the binding signal was -0.064 E-score. The result for CGACCCGC reads 0.0842 E-score; that for TAATAAAA, -0.1 E-score. On to ATAGCAGC, for which the binding signal is -0.139 E-score. For the sequence TAATGCCA, the binding signal is -0.102 E-score.

On to CAACGGCA, for which the binding signal was -0.0641 E-score. For ACTAGGAC, the binding signal was -0.0451 E-score.

As for AAACTCGA, the binding signal is -0.0959 E-score. As for GCCTGTCC, the binding signal was -0.141 E-score. Turning to AGACGCCG, the binding signal was -0.0368 E-score. With GAAATTCC, the binding signal was -0.27 E-score. On to AGATGAAG, for which the binding signal is -0.133 E-score.

In the case of ACGCCAAA, the binding signal came out at 0.03 E-score.

Turning to AGGGCAAT, the binding signal is -0.228 E-score. As to CGCCGGGC, the binding signal is 0.0211 E-score. On to GATGGCAA, for which the binding signal was -0.184 E-score. Take GCATGTAA: the binding signal was -0.267 E-score. For GTGGTCTA, the binding signal was -0.24 E-score. For the sequence AGCTCTTG, the binding signal came to 0.0292 E-score. Regarding ATCTTCTC, the binding signal was -0.26 E-score. As to AAGTGAAA, the binding signal is -0.211 E-score.

On to AAACCATG, for which the binding signal is -0.0648 E-score.

Regarding ACGACGAG, the binding signal was found to be 0.0334 E-score. Then CATACCTA, with 0.118 E-score; and CACACGTA, with 0.262 E-score; and GAACTCCA, with 0.0448 E-score. Turning to CCTGTCGC, the binding signal was -0.046 E-score. As to ATCATCAT, the binding signal is -0.109 E-score. With TGTAACAA, the binding signal came out at 0.0776 E-score. Regarding CACGAAGA, the binding signal was found to be 0.183 E-score. Turning to ATGAGCCG, the binding signal was -0.124 E-score. On to AGTCACTG, for which the binding signal is -0.0912 E-score. Regarding CGCGTAGA, the binding signal is -0.028 E-score. For GGAAGTCC, the binding signal is -0.357 E-score. Take TACAGCGA: the binding signal was -0.0156 E-score. Then ATTACCCG, with 0.167 E-score; and AGACTCCC, with -0.0273 E-score; and TACAGTCA, with -0.192 E-score. Take GCCTCGAA: the binding signal is -0.309 E-score.

For the sequence ACCTCTTG, the binding signal worked out at 0.119 E-score. Regarding ACGACTTA, the binding signal was -0.184 E-score.

ATTGACCA: the binding signal is -0.0287 E-score. Regarding ATGTTACG, the binding signal was -0.0117 E-score. For the sequence CTGTCCCA, the binding signal is -0.105 E-score. The result for CGGAAGCC reads 0.011 E-score; that for CAGACGGA, -0.136 E-score.

Turning to CTACAAGC, the binding signal amounted to 0.0112 E-score. The result for GCAGTCAC reads 0.0923 E-score. Then ATGGCGTC, with 0.0528 E-score; and CAGTCTTC, with -0.263 E-score. For the sequence ATGCTACG, the binding signal is -0.0255 E-score. The result for TAACTCGA reads 0.0141 E-score. The result for GAAATTAA reads 0.00983 E-score. For ACCATGAT, the binding signal amounted to 0.0345 E-score. Then CGTCCAAC, with 0.0861 E-score. For AAACCCAT, the binding signal is -0.0775 E-score.

With AAGCGAAA, the binding signal is -0.286 E-score. Turning to ACACAAGT, the binding signal turned out to be 0.0769 E-score. As for TATCCTCA, the binding signal came out at 0.0154 E-score. For the sequence ACGTTGAG, the binding signal was found to be 0.0269 E-score. On to AGTTTTGC, for which the binding signal stood at 0.0118 E-score.

Regarding CCAAGACC, the binding signal is -0.087 E-score.

With CTCCTACC, the binding signal was determined as 0.0647 E-score. As to ATTAGTAC, the binding signal is 0.114 E-score. On to AAATAATG, for which the binding signal was -0.0367 E-score. Consider AGTCGCAA, for which the binding signal is -0.0574 E-score. Take ACTGCCCG: the binding signal is 0.219 E-score. With ATGTACAA, the binding signal was -0.124 E-score. For AAAAGTAT, the binding signal is -0.149 E-score. As to CGCCTGAC, the binding signal stood at 0.105 E-score.

Turning to GTTCATGA, the binding signal was -0.13 E-score. For the sequence ATGTACTA, the binding signal came to 0.0231 E-score. The result for GTACCTTA reads 0.0897 E-score; that for CGAGACTC, 0.0917 E-score. As for ACAGAGCG, the binding signal is -0.271 E-score.

Regarding ACAATCAT, the binding signal is -0.0218 E-score. Consider AAAACTAC, for which the binding signal was determined as 0.0709 E-score. Turning to AAAAGCGC, the binding signal was -0.0916 E-score.

Regarding AGAGAGCT, the binding signal was -0.165 E-score.

Turning to CTGGCACA, the binding signal amounted to 0.218 E-score. As to ATTTGAGG, the binding signal was -0.0894 E-score. As for AGGAAGTA, the binding signal was -0.0689 E-score. On to GTGCACAA, for which the binding signal came to 0.113 E-score. For the sequence ACCTCATA, the binding signal is -0.0279 E-score. As to ATCCATGA, the binding signal was -0.000195 E-score. Then ACATCAAA, with -0.0621 E-score; and CGCCCATA, with 0.0879 E-score; and ATGCTGGA, with -0.0456 E-score. As to ATTATCCA, the binding signal was determined as 0.00307 E-score. Regarding ATGCACGC, the binding signal stood at 0.061 E-score. With TCTGACCA, the binding signal was -0.177 E-score.

In the case of GTAAGCAA, the binding signal is -0.211 E-score. For the sequence AAACTCTT, the binding signal is -0.125 E-score. Consider AGTGTGCA, for which the binding signal came out at 0.185 E-score. With GACCCCTC, the binding signal was found to be 0.26 E-score. As to CAACTCGC, the binding signal was found to be 0.026 E-score.

On to AATATTAA, for which the binding signal is -0.0587 E-score. On to CCCGTCAA, for which the binding signal was -0.134 E-score. Regarding GCGGCAAC, the binding signal was -0.203 E-score. For CGTAATGA, the binding signal is -0.124 E-score.

For AGCTCTCG, the binding signal was -0.238 E-score. As for TAGTGCCA, the binding signal is 0.0354 E-score. Turning to CACACGTG, the binding signal was found to be 0.362 E-score. Take ATAACGGG: the binding signal is -0.04 E-score.

With ATCTCTGC, the binding signal was -0.0534 E-score. As for AACTTACA, the binding signal is 0.164 E-score. Regarding GTGAACAA, the binding signal is 0.0192 E-score. With CAGTTGTA, the binding signal is -0.0984 E-score. On to TACGTCAA, for which the binding signal is 0.0575 E-score. Regarding GGAAACAC, the binding signal was 0.374 E-score.
